# Data: PubChem BioAssay (Tox21)
# Where “and” joins values, the source holds several entries; their conditions need not be identical. Equal entries are not always repeated. Inconclusive means that the source gave no clear call. Potencies beside an inconclusive call are fits to weak or partial responses and may not hold up.
# Target: Bile acid receptor (Homo sapiens) (UniProt Q96RI1)
# Test: qHTS assay to identify small molecule agonists of the farnesoid-X-receptor (FXR) signaling pathway (AID 743220)
# Settings: HEK293T FXR-UAS-bla, beta-lactamase FRET ratio, 16 h; activation: at 62.6 µM (top of the series) unless noted; active = well fitted activation curve with a large enough effect in the signal ratio in the repeat runs (not every such curve was filed as active); inconclusive = weak or mixed curves, or effect the other way; inactive = flat fitted curve, though single readings scatter; the % refers to the signal ratio
# In short: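 Beta-lactamase reporter under UAS control in GeneBLAzer FXR HEK 293T cells (5000/well) measured with LiveBLAzer FRET substrate after 2 h at room temperature. Compound exposure lasted 16 h at 37C.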
# % is scaled to controls: 0 for no effect and ±100 for the full control effect; potency is read from the fitted curve at half-maximal effect; tags tell the direction and shape of the fitted curve or compound fluorescence and quenching.
# UniProt Q96RI1, sequence (Q96RI1 whole entry, looked up): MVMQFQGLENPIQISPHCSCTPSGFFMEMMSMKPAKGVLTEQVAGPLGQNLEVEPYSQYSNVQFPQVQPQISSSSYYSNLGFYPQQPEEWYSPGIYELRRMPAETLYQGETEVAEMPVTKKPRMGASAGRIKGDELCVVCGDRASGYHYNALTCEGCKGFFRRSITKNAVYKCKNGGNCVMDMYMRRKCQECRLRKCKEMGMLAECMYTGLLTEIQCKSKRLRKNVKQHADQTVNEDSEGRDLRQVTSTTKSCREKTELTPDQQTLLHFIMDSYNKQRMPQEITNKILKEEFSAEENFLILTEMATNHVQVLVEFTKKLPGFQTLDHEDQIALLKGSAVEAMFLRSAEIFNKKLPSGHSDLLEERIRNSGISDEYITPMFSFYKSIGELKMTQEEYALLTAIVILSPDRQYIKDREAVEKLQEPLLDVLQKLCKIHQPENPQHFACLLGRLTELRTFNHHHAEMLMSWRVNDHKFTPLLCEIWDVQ
SMILES,Potency,activation
C=C1C(CCl)(CCl)C2(Cl)C(Cl)C(Cl)C1(Cl)C2(Cl)Cl (configuration not stated),"inconclusive: 60.9 µM [falling, single point]",
CCc1cc(Cc2cc(CC)cc(C(C)(C)C)c2O)c(O)c(C(C)(C)C)c1,"inconclusive: 21.9 µM [falling, full curve]",
CN(C)c1ccc(SC#N)cc1,,inconclusive: -0.532%
CCCCCCCCCCCCc1ccc(O)cc1,"inconclusive: 43.6 µM [falling, partial curve]",
Oc1c(Cl)cc(Cl)c2cccnc12,"inconclusive: 13.3 µM [activator, full curve]",
CC1=C(/C=C/C(C)=C/C=C/C(C)=C\C=O)C(C)(C)CCC1,,inconclusive: 4.82%
Clc1ccc2n[nH]nc2c1,,inconclusive: 7.25%
CC(=O)c1ccc(S(=O)(=O)NC(=O)NC2CCCCC2)cc1,"inconclusive: 6.88 µM [fluorescent, partial curve, poor fit]",
CCCCCCCCCCCCN1CCCC1=O,inconclusive: 61.6 µM,
C=CC(=O)OCC(CO)(COCC(COC(=O)C=C)(COC(=O)C=C)COC(=O)C=C)COC(=O)C=C,"inconclusive: 34.3 µM [falling, partial curve, poor fit]",
C=CC(=O)OCCOCCOCCOCCOC(=O)C=C,"inconclusive: 22 µM [activator, partial curve, poor fit] and inconclusive: 61.1 µM [fluorescent, single point]",
CN[C@H]1CC[C@@H](c2ccc(Cl)c(Cl)c2)c2ccc(S(N)(=O)=O)cc21,"inconclusive: 61.6 µM [falling, single point]",
